According to PubChem BioAssay AID504832 (National Center for Advancing Translational Sciences (NCATS), 2011):
In all, about 310,000 compounds went through this assay and about 18,000 (5.8%) were called active. Inconclusive results, whose numbers are uncertain, are shown with a selection of clear calls. The call rests on the fitted dose curve; in most records, active means well fitted inhibition curve with a large enough effect; inconclusive means small, poorly fitted or top-dose-only effect, or another doubt; inactive means no such curve, though single readings can be large or run the other way. Potencies of inconclusive entries are left out as doubtful fits.

test: Primary qHTS for delayed death inhibitors of the malarial parasite plastid, 48 hour incubation; settings: P. falciparum luciferase growth in erythrocytes; series mostly up to 28.7 µM; activity change, negative = inhibition: at the top concentration
Outline: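 Luminescence readout; reporter = integrated firefly luciferase in P. falciparum. RBC culture at 2% hematocrit, 0.1% parasitemia final, 37 C/5% CO2; decreased signal taken as growth inhibition.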
On the % scale 0 is the no-effect control and ±100 the full control effect; potency means the concentration at half of the fitted maximal effect; tags describe the fitted curve by direction and shape.

| SMILES | activity change, negative = inhibition | Potency |
| --- | --- | --- |
| O=[N+]([O-])c1ccc(CSC2=NCCS2)cc1 | inactive: 31.9% |  |
| CCOC(=O)c1ccc(NC(=O)COc2ccc(S(=O)(=O)NC(C)(C)C)cc2)cc1 |  | inconclusive [inhibitor, single point] |
| CC(=O)Nc1ccc2nc(CN3CCN(Cc4ccc(F)cc4)C(CCO)C3)ccc2c1 (stereo not given) |  | inconclusive [inhibitor, partial curve, poor fit] |
| O=C(Nc1cccc(S(=O)(=O)N2CCCCC2)c1)c1ccco1 |  | inconclusive [inhibitor, single point] |
| O=C(N/N=C/c1cccnc1)c1ccccc1OCc1cccc(Br)c1 |  | inconclusive [inhibitor, partial curve] |
| CCc1ccc(C(=O)COC(=O)CNC(=O)C2CCCCC2)cc1 | inactive: 112% |  |
| O=C(c1cc2nc(-c3ccccc3)cc(-c3ccccc3)n2n1)N1CCN(C(=O)c2ccco2)CC1 |  | inconclusive [inhibitor, full curve] |
| CC1=C(C(=O)OCc2ccccc2)C(c2ccc(C(C)(C)C)cc2)NC(=O)N1CCCCCC(=O)O (stereo not given) |  | inconclusive [inhibitor, single point] |
| COCCN(C(=O)Cn1c(C(F)(F)F)nc2ccccc21)c1c(N)n(Cc2ccccc2)c(=O)[nH]c1=O |  | inconclusive [inhibitor, partial curve] |
| CC(=O)OCCCNc1cc(Sc2ccc(C)cc2)c2nonc2c1[N+](=O)[O-] |  | inconclusive [inhibitor, single point] |
| CCN(CC)CC(=O)Nc1ccc(-c2nc3cc(NC(=O)CN(CC)CC)ccc3o2)cc1 |  | active: 2.62 µM |
| Cn1c(Cn2c(=O)sc3ccccc32)nnc1SCC(=O)NCc1ccccc1Cl | inactive: 4.07% |  |
| N#CCC(=O)NN=C1CCCCCCCCCCC1 | inactive: 1.85% |  |
| COc1cccc(N2C(=NC(=O)COc3ccccc3)SC3CS(=O)(=O)CC32)c1 (stereo not given) | inactive: 11.6% |  |
| CCOC(=O)N/N=C/c1c(C)nn(-c2cccc(C(F)(F)F)c2)c1Cl |  | active: 2.08 µM |
| Cc1ccsc1C(=O)N1CCN(c2ncccn2)CC1 | inactive: -11.6% |  |
| COc1ccc2cc3cc(C(=O)NCCN4CCc5ccccc5C4)sc3nc2c1 |  | inconclusive [inhibitor, full curve] |
| CCOc1ccc(N2C(=O)CC(NC3CCN(C(=O)c4cccs4)CC3)C2=O)cc1 (stereo not given) |  | inconclusive [inhibitor, full curve, poor fit] |
| COc1ccccc1NC(=O)CN1C(=O)COc2ccc(S(=O)(=O)N3CCCCCC3)cc21 |  | inconclusive [inhibitor, single point] |
| O=C(CSc1nncs1)Nc1ccc(N2CCCCC2)cc1 | inactive: 261% |  |
| COc1cc(O)c2c(c1)OC(C)(C)CC2=O | inactive: 17.1% |  |
| CCn1cc(CN2CCC(n3nccc3NC(=O)CCOc3ccccc3)CC2)c(C)n1 | inactive: 8.46% |  |
| COc1ccc(OC)c(C2=NS(=O)(=O)N(C)C(C(=O)NCc3cccs3)=C2)c1 |  | inconclusive [inhibitor, single point] |
| CCN(CC)CCN1C(=O)c2cccc3cc(N)cc(c23)C1=O |  | inconclusive [inhibitor, single point] |
| CCOc1ccc(-c2c[n+]3c(n2-c2ccccc2)CCCCC3)cc1 |  | active: 1.17 µM |

| SMILES | activity change, negative = inhibition | Potency |
| --- | --- | --- |
| O=S(=O)(c1cc(F)ccc1F)N1CCN2CCCC2C1 (stereo not given) |  | inconclusive [inhibitor, single point] |
| CCOC(=O)c1cnc2c(CC)cccc2c1NCCN1CCOCC1 |  | inconclusive [inhibitor, partial curve, poor fit] |
| Cc1ccc(C(=O)C(C)OC(=O)C2CC(=O)N(C3CCCCC3)C2)cc1 (stereo not given) | inactive: 6.92% |  |
| Cc1ccccc1OC(C)C(=O)NCCCN1CCOCC1 (stereo not given) | inactive: 3.39% |  |
| Cc1ccc(CNC(=O)C23CN(Cc4ccccc4)CC2C(c2ccc([N+](=O)[O-])cc2)=NO3)o1 (stereo not given) |  | inconclusive [inhibitor, single point] |
| CCOc1ccc(CCNC(=O)c2ccc(OCc3c(C)noc3C)cc2)cc1OCC |  | inconclusive [inhibitor, partial curve] |
| Cc1ccc(C2c3[nH]c4ccccc4c3C[C@H]3C(=O)N(c4ccccc4C(=O)N4CCC(C(=O)O)CC4)C(=O)N23)cc1 (stereo not given in full) |  | active: 11.7 µM |
| Cc1oc(-c2ccccc2Cl)nc1CN(C)C(C)c1ccon1 (stereo not given) | inactive: 2.11% |  |
| COc1cc(NC(=O)c2ccc(NS(=O)(=O)c3c(C)noc3C)cc2)cc(OC)c1 |  | inconclusive [inhibitor, full curve, poor fit] |
| O=C(Cn1cnc2c(oc3ccccc32)c1=O)NCC1CCCO1 (stereo not given) | inactive: 18.1% |  |
| COc1cc(C(=O)Nc2cccc(-c3nncn3C)c2)cc(OC)c1OC | inactive: -8.81% |  |
| O=C1[C@H]2[C@@H](c3ccc(Cl)cc3)N3C(=O)N(c4cccc(Cl)c4)C(=O)[C@@]3(Cc3ccccc3)[C@H]2C(=O)N1C1CCCCC1 |  | active: 2.08 µM |
| COc1ccccc1N1CCN(C(=O)c2ccccc2NC(=O)C2CCCCC2C(=O)O)CC1 (stereo not given) | inactive: 15.4% |  |
| CCOC(=O)C(=O)Nc1ccc(S(=O)(=O)Nc2nccs2)cc1 | inactive: 8.33% |  |
| CCN(CC)c1ccc(NC2CC(=O)N(CCc3ccc(OC)cc3)C2=O)cc1 (stereo not given) |  | active: 4.65 µM |
| O=C(NC(=S)Nc1ccc2nc[nH]c2c1)c1ccccc1 | inactive: 103% |  |
| O=c1c2ccccc2c(C=Nc2ccc(S(=O)(=O)N3CCCCC3)cc2)c(O)n1-c1ccc(Cl)cn1 | inactive: -6.25% |  |
| COc1ccc2[nH]c3c(c2c1)CCNC3C1CC=C(C)CC1 (stereo not given) |  | inconclusive [inhibitor, single point] |
| Cn1c(N)c(C(=O)COC(=O)COc2ccc3ccccc3c2)c(=O)n(C)c1=O | inactive: -15.6% |  |
| CN(C(=S)Nc1ccccc1F)C1(c2ccccc2Cl)CCCCC1=O (stereo not given) |  | active: 10.4 µM |
| CCOC(=O)CCCCC(=O)c1[nH]c(=O)[nH]c1CSc1nnc2c3ccccc3n(C(C)C)c2n1 |  | inconclusive [inhibitor, single point] |
| O=C(Nc1nonc1-c1ccc(Cl)cc1)c1ccccc1 |  | inconclusive [inhibitor, full curve, poor fit] |
| COCC(C)NC(=S)NC(=O)c1cc(S(=O)(=O)N2CCOCC2)ccc1C (stereo not given) | inactive: 1.75% |  |
| CC(=O)N1C(C)(C)CC(=NOC(=O)c2ccc(C)cc2)CC1(C)C | inactive: 4.68% |  |
| O=C(Nc1ccc(Cc2ccncc2)cc1)c1ccc([N+](=O)[O-])o1 |  | inconclusive [inhibitor, single point] |

| SMILES | activity change, negative = inhibition | Potency |
| --- | --- | --- |
| COc1ccc(-c2nnn(-c3cc(Cl)cc(Cl)c3)c2N)cc1 |  | inconclusive [inhibitor, partial curve, poor fit] |
| COc1ccc(-c2cc(C(=O)Nc3cc(S(=O)(=O)N4CCOCC4)ccc3N3CCOCC3)c3ccccc3n2)cc1 |  | inconclusive [inhibitor, partial curve, poor fit] |
| O=C(CSc1nc(-c2ccccc2)nn1C(=O)c1ccccc1)Nc1cccc([N+](=O)[O-])c1 | inactive: 5.39% |  |
| CCC(=O)N/N=C(\C)CC(=O)Nc1ccccc1-c1ccccc1 | inactive: -15.8% |  |
| CC(=O)c1ccc(NC(=O)COC(=O)c2ccc(F)cc2F)cc1 | inactive: 19.7% |  |
| CC1CC(C)CN(C(=O)CSc2nnc(-c3ccco3)o2)C1 (stereo not given) | inactive: -15.3% |  |
| O=C1c2ccccc2C(=O)N1CC(=O)N1c2ccccc2Sc2ccc(C(F)(F)F)cc21 | inactive: 9.03% |  |
| O=C(Cn1ccnc1[N+](=O)[O-])NCCO | inactive: 4.18% |  |
| Cc1ccc(S(=O)(=O)NC(C)C(=O)Nc2cccc([N+](=O)[O-])c2)cc1 (stereo not given) |  | inconclusive [inhibitor, partial curve, poor fit] |
| O=c1[nH]c2c(s1)C(c1cccnc1)C1C3CCC(C3)C1S2 (stereo not given) |  | inconclusive [inhibitor, single point] |
| O=C(CCCc1ccccc1)NCCN1CCOCC1 | inactive: 21.3% |  |
| COC(=O)CCSCC(=O)N1N=C(c2ccc(Br)cc2)CC1c1cccc(OC)c1OC (stereo not given) |  | inconclusive [inhibitor, single point] |
| O=C(CSc1nnc(-c2ccc(O)cc2)o1)N1CCOCC1 | inactive: 51.4% |  |
| CCOC(=O)c1c(NC(=O)CSc2nncs2)sc(C)c1C | inactive: 14.2% |  |
| Cc1sc(NC(=O)CSc2ncn(-c3ccccc3)n2)nc1-c1ccccc1 |  | inconclusive [inhibitor, single point] |
| COc1ccc(Cl)cc1NC(=O)NCCCl |  | inconclusive [inhibitor, partial curve] |
| CC1CC(C)CN(S(=O)(=O)c2ccc3c(c2)CC(C)N3C(=O)C2CCC2)C1 (stereo not given) |  | active: 10.4 µM |
| CS(=O)(=O)c1ccc(C(=O)NCCN2C(=O)S/C(=C\c3cccnc3)C2=O)cc1[N+](=O)[O-] |  | active: 5.22 µM |
| CC1=C2C(CCS2(=O)=O)CC2(C1)C(=O)OC(C)(C)OC2=O (stereo not given) | inactive: 8.67% |  |
| Oc1ccc(O)c(Cc2nc3ccccc3[nH]2)c1 |  | inconclusive [inhibitor, single point] |
| Cc1ccc(NC(=O)c2ccc(F)cc2)cc1S(=O)(=O)N1CCCCCC1 | inactive: -16% |  |
| COc1cccc2cc(/C(C)=N/NC(=O)c3ccco3)oc12 |  | inconclusive [inhibitor, partial curve, poor fit] |
| CCCCCC(=O)Nc1ccccc1N1CCN(c2ccccc2)CC1 |  | inconclusive [inhibitor, single point] |
| CC1=[N+](CC(=O)c2ccccc2)CCn2cccc21 |  | inconclusive [inhibitor, single point] |
| CCOC(=O)C1=C(CN2CCCCCC2)NC(=O)NC1c1cccc([N+](=O)[O-])c1 (stereo not given) |  | inconclusive [inhibitor, single point] |
